# About 14,000 (4.5%) of roughly 310,000 compounds showed an effect of 50% or more. Effects have a minus sign here. This is one part of the list.
# Molecular target: human ether-à-go-go-related gene (hERG) potassium channel (human, UniProt Q12809)
# Assay: primary screen, population patch clamp on CHO cells stably expressing hERG
# 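Note: peak tail current of the secondary pulse compared with the same well before compound.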
# human ether-à-go-go-related gene (hERG) potassium channel, sequence (Q12809 whole entry, looked up): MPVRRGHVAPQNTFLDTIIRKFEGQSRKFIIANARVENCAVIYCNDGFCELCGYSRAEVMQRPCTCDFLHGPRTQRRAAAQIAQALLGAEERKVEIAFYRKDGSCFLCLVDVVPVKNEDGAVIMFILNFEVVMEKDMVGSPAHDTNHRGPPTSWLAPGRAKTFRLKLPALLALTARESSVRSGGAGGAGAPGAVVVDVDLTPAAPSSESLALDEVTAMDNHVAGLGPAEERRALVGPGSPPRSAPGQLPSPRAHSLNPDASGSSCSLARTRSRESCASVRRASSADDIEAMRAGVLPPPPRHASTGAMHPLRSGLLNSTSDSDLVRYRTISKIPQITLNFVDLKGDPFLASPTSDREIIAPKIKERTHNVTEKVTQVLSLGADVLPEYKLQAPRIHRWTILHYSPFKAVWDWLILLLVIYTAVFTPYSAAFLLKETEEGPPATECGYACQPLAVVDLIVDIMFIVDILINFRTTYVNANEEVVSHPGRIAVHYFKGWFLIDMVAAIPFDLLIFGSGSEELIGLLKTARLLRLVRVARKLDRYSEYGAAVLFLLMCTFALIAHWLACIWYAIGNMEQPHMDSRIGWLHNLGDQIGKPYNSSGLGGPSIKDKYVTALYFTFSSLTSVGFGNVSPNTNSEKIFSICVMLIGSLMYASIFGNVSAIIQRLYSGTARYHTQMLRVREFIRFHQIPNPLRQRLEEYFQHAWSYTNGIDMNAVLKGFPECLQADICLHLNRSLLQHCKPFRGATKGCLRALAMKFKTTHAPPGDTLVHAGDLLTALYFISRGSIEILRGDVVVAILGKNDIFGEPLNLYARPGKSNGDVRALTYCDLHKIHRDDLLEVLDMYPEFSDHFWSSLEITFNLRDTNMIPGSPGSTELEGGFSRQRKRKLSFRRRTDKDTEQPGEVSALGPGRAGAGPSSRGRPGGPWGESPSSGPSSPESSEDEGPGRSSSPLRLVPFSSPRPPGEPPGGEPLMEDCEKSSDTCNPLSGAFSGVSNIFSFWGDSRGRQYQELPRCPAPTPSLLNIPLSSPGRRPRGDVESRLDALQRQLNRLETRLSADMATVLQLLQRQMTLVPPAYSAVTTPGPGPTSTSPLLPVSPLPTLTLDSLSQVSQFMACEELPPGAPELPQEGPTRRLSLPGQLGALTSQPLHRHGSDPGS
row,Structure (SMILES),"hERG current change (%, negative = inhibition) at 10uM [%]"
1,CCCCc1nnc(NC(=O)COC)s1,30.8
2,Cc1cc(C(=O)CN2C(=O)C(=O)N(Cc3ccco3)C2=O)c(C)n1CCc1ccc(F)cc1,-21
3,CCn1nc(C)cc1C(=O)Sc1cccc(Br)c1,8.89
4,CCOc1ncccc1C(=O)NNC(=O)c1csc(N2CCOCC2)n1,7.98
5,COCCNC(=O)c1snc2ccc(Cl)cc12,13.9
6,O=C(NNC(=O)c1ccc([N+](=O)[O-])cc1C(=O)O)c1ccncc1,20.4
7,CN(C(=O)COC(=O)Cc1c(F)cccc1Cl)c1c(N)n(Cc2ccccc2)c(=O)[nH]c1=O,8.76
8,Cc1cnc(C(=O)OCC(=O)Nc2cccc(Cl)c2)cn1,19.8
9,CCN(CC)C(=O)Oc1ccc2c(c1)O/C(=C\c1ccco1)C2=O,-29.2
10,Cc1cc(C)n(CC(O)Cn2c3ccccc3c3ccccc32)n1.[Cl-] (stereo not drawn),-2.28
11,Cc1cc(C)c(Cn2c(=O)n(CCCC(=O)NCc3ccco3)c(=O)c3ccccc32)c(C)c1,13.2
12,CC(NC(=O)c1ccc(S(=O)(=O)C(F)F)cc1)c1ccccc1 (stereo not drawn),2.57
13,Cc1ccc(CNCC(O)(c2ccccc2)c2ccccc2)cc1,-33
14,Cc1ccccc1N1CCN(S(=O)(=O)C[C@]23CCC(CC2NC(=O)[C@@H](N)CCS(C)(=O)=O)C3(C)C)CC1.Cl (stereo partly drawn),5.91
15,COc1cccc(SCc2noc(C(=O)NCC3CCCO3)c2C(=O)O)c1 (stereo not drawn),11.9
16,Cc1ccc(C(C(=O)NC2CCCC2)N(C(=O)c2csnn2)c2cccc(F)c2)o1 (stereo not drawn),18.5
17,COCCCNC(=O)CCCC(=O)NCCCOC,17.3
18,CC1CCc2c(sc3ncnc(SC(C)C(=O)NCC4CCCO4)c23)C1 (stereo not drawn),-13.9
19,Cc1cc(C)cc(OCC(=O)NNC(=O)CCN2C(=O)c3ccccc3C2=O)c1,-14.8
20,Cc1cccc(CCNC(=O)CCc2nnc(CCc3ccccc3)o2)n1,13.4
21,Clc1ccc(OCc2cc(-c3ccccc3)no2)c(Cl)c1,11.2
22,CN(C)S(=O)(=O)c1cccc(NC(=O)COC(=O)COc2ccc(Br)cc2)c1,-19.5

row,Structure (SMILES),"hERG current change (%, negative = inhibition) at 10uM [%]"
1,CC(C)(C)NC(=O)C(c1ccc(O)cc1)N(C(=O)Cn1nnc(-c2ccc(F)cc2)n1)c1ccccc1F (stereo not drawn),-1.66
2,CN(C)c1ccc(NC(=O)COC(=O)Cn2nnc3ccccc32)cc1,-13.9
3,CC(=O)Nc1ccc(S(=O)(=O)N2CCc3c(Cl)cccc3C2)cc1,7.78
4,O=C(COC(=O)CNS(=O)(=O)c1c(Cl)cccc1Cl)Nc1ccccc1Sc1ccccc1,9.31
5,Cc1noc(C)c1COC(=O)Cc1ccc(Cl)c(Cl)c1,-3.02
6,CCOC(=O)c1[nH]c(C)c(C(=O)Nc2cc(Cl)ccc2C)c1C,10.4
7,COc1cccc(C(=O)NNC(=O)c2ccccc2)c1,8.52
8,CCC(NC(=O)OC(C)(C)C)C(=O)Oc1cc(C)cc2oc(=O)c3c(c12)CCC3 (stereo not drawn),0.344
9,COc1ccc(Cl)cc1S(=O)(=O)Nc1cccc(C(=O)O)c1,-4.31
10,Cc1nn(CC(=O)N2CCN(S(=O)(=O)c3ccccc3)CC2)c(C)c1[N+](=O)[O-],-10
11,Cl.N=c1c2c(n(Cc3ccc(Cl)cc3)c3c1CCC3)CCC2,-2.06
12,Cc1ccc2nnnc(-c3ccccc3)c2c1,6.84
13,Cn1c(CNC(=O)c2ccco2)nnc1SCC(=O)N1CCN(c2ccccc2)CC1,7.26
14,Cc1cc(C)n(S(=O)(=O)c2cccc(Cl)c2Cl)n1,-2.07
15,Cc1cc(C(=O)CSc2nnc(NCc3ccccc3)s2)c(C)n1C,-9.15
16,COCCNC(=O)Cn1cc(/C=C2\C(=O)NC(=O)N(c3ccccc3F)C2=O)c2ccccc21,17
17,COc1ccc(CCNC(=O)C(=O)Nc2ccc3c(c2)OCCO3)cc1OC,14.8
18,CCN1CCN(C(=O)/C(=C/c2cccs2)NC(=O)c2ccc(C)c(C)c2)CC1,-75.6
19,CC(C)c1c(O)nc(SCc2ccc(F)cc2)[nH]c1=O,20.4
20,CCN(Cc1ccccc1)S(=O)(=O)c1cc(C(=O)c2c(N)n(C)c(=O)n(C)c2=O)ccc1OC,-15.2
21,COc1cccc(CNC(=O)CCCc2c[nH]c3ccccc23)c1,-12.3
22,CCc1nnc(NC(=O)c2ccc(Br)c(S(=O)(=O)N3CCOCC3)c2)s1,21.1

row,Structure (SMILES),"hERG current change (%, negative = inhibition) at 10uM [%]"
1,O=C(O)CCC(=O)N1CCc2cc(S(=O)(=O)N3CCC(Cc4ccccc4)CC3)ccc21,6.5
2,COc1ccc(Cn2c(CCC(=O)Nc3ccc(CC#N)cc3)nc3cccnc32)cc1,-10.6
3,Cc1ccc(NC2=C(Cl)C(=O)OC2OC(=O)c2ccc(C)cc2)cc1 (stereo not drawn),-51.7
4,CCCCC(=O)Nc1ccc(NC(=O)c2ccccc2[N+](=O)[O-])cc1OC,-14
5,N/C(CC(=O)Nc1ccc(F)c(Cl)c1)=N\OC(=O)c1cccs1,16.4
6,Cc1cccc(NCC(=O)N/N=C\c2c[nH]c3ccccc23)c1,-9.16
7,O=C(NC(=O)c1ccc(F)cc1F)Nc1ccc(Cl)cc1,3.56
8,CCc1c(C2(O)CCCCC2)[nH]c2ccc(C(=O)OC)cc12,15.3
9,COc1ccc(CCNC(=O)C2CCCN(S(=O)(=O)c3ccc(F)cc3)C2)cc1OC (stereo not drawn),-5.02
10,COC(=O)C(C)NC(=S)N1CC2C[C@@H](C1)Cn1c2cccc1=O (stereo partly drawn),16.9
11,COCCCNC(=O)CN(c1ccc(OC)cc1)S(=O)(=O)c1ccc(NC(C)=O)cc1,12.9
12,Cn1c2c(c(=O)c3ccccc31)CCCC2,-4.88
13,CNC(=O)c1sc(-c2cccnc2)nc1C,-34.7
14,O=C(Nc1ccc2c(c1)C(=O)NC2=O)c1ccc(Cl)s1,10.5
15,O=C1CCC(C(=O)Nc2ccc(Cl)cc2)N1 (stereo not drawn),28
16,CC(=O)N/C(=C\c1ccccc1)C(=O)OCC(=O)NC(=O)c1ccccc1,-6.77
17,CCc1cccc(C)c1NC(=O)C1CC(=O)N(C2CCCC2)C1 (stereo not drawn),3.52
18,O=S1(=O)CC(O)C(NCCO)C1 (stereo not drawn),5.25
19,CCOc1ccc(Nc2nc(Cc3nnc(SCC(N)=O)o3)cs2)cc1,-5.72
20,CCCN1CCC(NC(=O)Cc2ccc(C)cc2)CC1,4.74
21,CCCCc1cc(C(=O)Cc2ccccn2)c(O)cc1O,16.9
22,COc1ccc(C(=O)/C(C#N)=N/Nc2ccc([N+](=O)[O-])cc2)cc1,7.78

row,Structure (SMILES),"hERG current change (%, negative = inhibition) at 10uM [%]"
1,CCN1C(=O)C2(SC(NC(C)=O)=NN2C(C)=O)c2cc(C)ccc21 (stereo not drawn),-9.19
2,COc1cc([N+](=O)[O-])ccc1NC(=O)NCc1ccccn1,11.7
3,COc1cccc(C2C(C(=O)OC(C)C)=C(C)N=c3s/c(=C\c4ccc(C(=O)O)cc4)c(=O)n32)c1 (stereo not drawn),-9.76
4,Cc1ccc2cc3c(NC(=O)C(C)C)nn(C)c3nc2c1,-5.72
5,COc1cc(C2/C(=C(\O)c3ccc4c(c3)CC(C)O4)C(=O)C(=O)N2CCCn2ccnc2)cc(OC)c1OC (stereo not drawn),-18.9
6,Cc1ccc(C)c(OC(=O)c2cccnc2Cl)c1C,-8.07
7,N#Cc1ccc(N2CCN(C(=O)c3cccs3)CC2)c(F)c1,-55.7
8,CCCc1cc(=O)oc2cc(C)cc(OC(C)C(=O)NCc3cccnc3)c12 (stereo not drawn),-47.3
9,O=C(N[C@@H](Cc1ccccc1)C(=O)N1CCC2(CC1)NCCc1[nH]cnc12)c1cccc(F)c1,18.6
10,COc1ccc(CNC(=O)C(C)n2nc(C)c3c(C)n(-c4ccc(C)cc4)nc3c2=O)cc1 (stereo not drawn),-50.1
11,CC(C)c1ccccc1NC(=O)CSc1n[nH]c(=O)n1C1CC1,8.91
12,NC(N)=Nc1ccc2[nH]c3c(c2c1)C[C@@]1(O)[C@H]2Cc4ccc(O)c5c4[C@@]1(CCN2CC1CC1)[C@H]3O5.O=C(O)C(F)(F)F,6.85
13,O=C(c1ccc2c3c(cccc13)CC2)C1CCCN(Cc2ccccn2)C1 (stereo not drawn),-42.5
14,CCOc1ccc(-n2c(N)c(-c3nc4ccccc4n3C)c3nc4ccccc4nc32)cc1,-7.84
15,CCOc1ccc(C(=O)NCCCN2CCCC2=O)cc1,-8.47
16,CC1(C)NC(=O)N(CCCSc2ccc(Cl)cc2)C1=O,-7.93
17,OCC[C@H]1C[C@H](O)[C@@H](O)[C@]2(Cc3ccccc3CO2)O1,13
18,Cc1nnc(SCC(=O)NC(=O)NC(C)(C)C)s1,17.9
19,CCOP(=O)(c1ccc(N(C)C)cc1)C(O)c1ccc(C)cc1 (stereo not drawn),14.7
20,N#CCSc1nnc(COc2ccc3ccccc3c2)o1,-5.89
21,CCOc1ccc(C(=S)N2CCCC2)cc1,-7.78

# Reference: paper PMC4336329 (PLoS ONE, 2015)
